Test results taken from the supplement of paper PMC8728848.
Some of the results follow.

Assays:
Test in all cases: glycan array binding signal (z-score within array); higher = stronger binding
Settings in all cases: glycan notation: IUPAC condensed, linker removed
[1] = target: Neu5Ac(a2-3)Gal(b1-4)GlcNAc(b1-2)[Neu5Ac(a2-3)Gal(b1-4)GlcNAc(b1-4)]Man(a1-3)[GlcNAc(b1-4)][Neu5Ac(a2-3)Gal(b1-4)GlcNAc(b1-4)Man(a1-6)]Man(b1-4)GlcNAc(b1-4)GlcNAc
How it was run: (§1)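 Glycan array binding is given as a within-array Z-score, which can be read as non-binding when negative. The arrays, 3228 of them, came from the Consortium for Functional Glycomics database and were retained only where the protein sequence was available. Z-scores were averaged across arrays of the same protein sequence at different concentrations or buffers and across linkers.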

[2] = target: Neu5Ac(a2-3)Gal(b1-4)GlcNAc(b1-2)[Neu5Ac(a2-3)Gal(b1-4)GlcNAc(b1-6)]Man(a1-6)[Neu5Ac(a2-3)Gal(b1-4)GlcNAc(b1-2)Man(a1-3)]Man(b1-4)GlcNAc(b1-4)GlcNAc
How it was run: as §1

[3] = target: Neu5Ac(a2-3)Gal(b1-4)GlcNAc(b1-2)[Neu5Ac(a2-3)Gal(b1-4)GlcNAc(b1-6)]Man(a1-6)[Neu5Ac(a2-3)Gal(b1-4)GlcNAc(b1-2)Man(a1-3)][GlcNAc(b1-4)]Man(b1-4)GlcNAc(b1-4)GlcNAc
How it was run: as §1

[4] = target: Neu5Ac(a2-3)Gal(b1-4)GlcNAc(b1-3)Gal
How it was run: as §1

[5] = target: Neu5Ac(a2-3)Gal(b1-4)GlcNAc(b1-3)Gal(b1-3)GlcNAc
How it was run: as §1

[6] = target: Neu5Ac(a2-3)Gal(b1-4)GlcNAc(b1-3)Gal(b1-4)GlcNAc
How it was run: as §1

[7] = target: Neu5Ac(a2-3)Gal(b1-4)GlcNAc(b1-3)Gal(b1-4)GlcNAc(b1-2)Man(a1-3)[Neu5Ac(a2-3)Gal(b1-4)GlcNAc(b1-3)Gal(b1-4)GlcNAc(b1-2)Man(a1-6)]Man(b1-4)GlcNAc(b1-4)GlcNAc
How it was run: as §1

[8] = target: Neu5Ac(a2-3)Gal(b1-4)GlcNAc(b1-3)Gal(b1-4)GlcNAc(b1-3)Gal(b1-4)GlcNAc
How it was run: as §1

[9] = target: Neu5Ac(a2-3)Gal(b1-4)GlcNAc(b1-3)Gal(b1-4)GlcNAc(b1-3)Gal(b1-4)GlcNAc(b1-2)Man(a1-3)[Neu5Ac(a2-3)Gal(b1-4)GlcNAc(b1-3)Gal(b1-4)GlcNAc(b1-3)Gal(b1-4)GlcNAc(b1-2)Man(a1-6)]GalNAc
How it was run: as §1

[10] = target: Neu5Ac(a2-3)Gal(b1-4)GlcNAc(b1-3)Gal(b1-4)GlcNAc(b1-3)GalNAc
How it was run: as §1

[11] = target: Neu5Ac(a2-3)Gal(b1-4)GlcNAc(b1-3)Gal(b1-4)GlcNAc(b1-3)[Neu5Ac(a2-3)Gal(b1-4)GlcNAc(b1-3)Gal(b1-4)GlcNAc(b1-6)]GalNAc
How it was run: as §1

[12] = target: Neu5Ac(a2-3)Gal(b1-4)GlcNAc(b1-3)Gal(b1-4)GlcNAc(b1-6)[Gal(b1-3)]GalNAc
How it was run: as §1

[13] = target: Neu5Ac(a2-3)Gal(b1-4)GlcNAc(b1-3)Gal(b1-4)[Fuc(a1-3)]GlcNAc
How it was run: as §1

[14] = target: Neu5Ac(a2-3)Gal(b1-4)GlcNAc(b1-3)GalNAc
How it was run: as §1

[15] = target: Neu5Ac(a2-3)Gal(b1-4)GlcNAc(b1-3)[Neu5Ac(a2-3)Gal(b1-4)GlcNAc(b1-6)]GalNAc
How it was run: as §1

[16] = target: Neu5Ac(a2-3)Gal(b1-4)GlcNAc(b1-6)GalNAc
How it was run: as §1

[17] = target: Neu5Ac(a2-3)Gal(b1-4)GlcNAc(b1-6)[Gal(b1-3)]GalNAc
How it was run: as §1

[18] = target: Neu5Ac(a2-3)Gal(b1-4)GlcNAc(b1-6)[Neu5Ac(a2-3)Gal(b1-3)]GalNAc
How it was run: as §1

[19] = target: Neu5Ac(a2-3)Gal(b1-4)GlcNAc6S
How it was run: as §1

[20] = target: Neu5Ac(a2-3)Gal(b1-4)[Fuc(a1-3)]GlcNAc
How it was run: as §1

[21] = target: Neu5Ac(a2-3)Gal(b1-4)[Fuc(a1-3)]GlcNAc(b1-2)Man
How it was run: as §1

[22] = target: Neu5Ac(a2-3)Gal(b1-4)[Fuc(a1-3)]GlcNAc(b1-3)Gal
How it was run: as §1

[23] = target: Neu5Ac(a2-3)Gal(b1-4)[Fuc(a1-3)]GlcNAc(b1-3)Gal(b1-4)GlcNAc
How it was run: as §1

[24] = target: Neu5Ac(a2-3)Gal(b1-4)[Fuc(a1-3)]GlcNAc(b1-3)Gal(b1-4)[Fuc(a1-3)]GlcNAc(b1-3)Gal(b1-4)[Fuc(a1-3)]GlcNAc
How it was run: as §1

[25] = target: Neu5Ac(a2-3)Gal(b1-4)[Fuc(a1-3)]GlcNAc(b1-3)GalNAc
How it was run: as §1

[26] = target: Neu5Ac(a2-3)Gal(b1-4)[Fuc(a1-3)]GlcNAc(b1-6)[Gal(b1-3)]GalNAc
How it was run: as §1

[27] = target: Neu5Ac(a2-3)Gal(b1-4)[Fuc(a1-3)]GlcNAc(b1-6)[Neu5Ac(a2-3)Gal(b1-3)]GalNAc
How it was run: as §1

[28] = target: Neu5Ac(a2-3)Gal(b1-4)[Fuc(a1-3)]GlcNAc6S
How it was run: as §1

[29] = target: Neu5Ac(a2-3)Gal6S(b1-4)GlcNAc
How it was run: as §1

[30] = target: Neu5Ac(a2-3)Gal6S(b1-4)[Fuc(a1-3)]GlcNAc
How it was run: as §1

Neu5Ac(a2-3)GalNAc = target: Neu5Ac(a2-3)GalNAc
How it was run: as §1

[31] = target: Neu5Ac(a2-3)GalNAc(b1-4)GlcNAc
How it was run: as §1

[32] = target: Neu5Ac(a2-3)[GalNAc(b1-4)]Gal(b1-4)Glc
How it was run: as §1

[33] = target: Neu5Ac(a2-3)[GalNAc(b1-4)]Gal(b1-4)GlcNAc
How it was run: as §1

[34] = target: Neu5Ac(a2-3)[GalNAc(b1-4)]Gal(b1-4)GlcNAc(b1-3)GalNAc
How it was run: as §1

[35] = target: Neu5Ac(a2-3)[Neu5Ac(a2-6)]GalNAc
How it was run: as §1

Neu5Ac(a2-6)Gal = target: Neu5Ac(a2-6)Gal
How it was run: as §1

B1: Clec18C (Homo sapiens) (protein)
chain: MLHPETSPGRGHLLAVLLALLGTAWAEVWPPQLQEQAPMAGALNRKESFLLLSLHNRLRSWVQPPAADMRRLDWSDSLAQLAQARAALCGTPTPSLASGLWRTLQVGWNMQLLPAGLVSFVEVVSLWFAEGQRYSHAAGECARNATCTHYTQLVWATSSQLGCGRHLCSAGQAAIEAFVCAYSPRGNWEVNGKTIVPYKKGAWCSLCTASVSGCFKAWDHAGGLCEVPRNPCRMSCQNHGRLNISTCHCHCPPGYTGRYCQVRCSLQCVHGRLREEECSCVCDIGYGGAQCATKVHFPFHTCDLRIDGDCFMVSSEADTYYRARMKCQRKGGVLAQIKSQKVQDILAFYLGRLETTNEVIDSDFETRNFWIGLTYKTAKDSFRWATGEHQAFTSFAFGQPDNHGFGNCVELQASAAFNWNNQRCKTRNRYICQFAQEHISRWGPGS
[1]
  glycan array binding signal (z-score): -0.516
[2]
  glycan array binding signal (z-score): -0.29
[3]
  glycan array binding signal (z-score): -0.556
[4]
  glycan array binding signal (z-score): -0.482
[5]
  glycan array binding signal (z-score): -0.542
[6]
  glycan array binding signal (z-score): -0.529
[7]
  glycan array binding signal (z-score): -0.065
[8]
  glycan array binding signal (z-score): -0.457
[9]
  glycan array binding signal (z-score): -0.015
[10]
  glycan array binding signal (z-score): -0.604
[11]
  glycan array binding signal (z-score): -0.025
[12]
  glycan array binding signal (z-score): 0.388
[13]
  glycan array binding signal (z-score): -0.596
[14]
  glycan array binding signal (z-score): -0.608
[15]
  glycan array binding signal (z-score): -0.439
[16]
  glycan array binding signal (z-score): 3.92
[17]
  glycan array binding signal (z-score): -0.357
[18]
  glycan array binding signal (z-score): -0.585
[19]
  glycan array binding signal (z-score): -0.455
[20]
  glycan array binding signal (z-score): -0.378
[21]
  glycan array binding signal (z-score): -0.616
[22]
  glycan array binding signal (z-score): -0.523
[23]
  glycan array binding signal (z-score): -0.363
[24]
  glycan array binding signal (z-score): 0.997
[25]
  glycan array binding signal (z-score): -0.116
[26]
  glycan array binding signal (z-score): -0.465
[27]
  glycan array binding signal (z-score): -0.216
[28]
  glycan array binding signal (z-score): -0.571
[29]
  glycan array binding signal (z-score): -0.408
[30]
  glycan array binding signal (z-score): -0.56
Neu5Ac(a2-3)GalNAc
  glycan array binding signal (z-score): -0.575
[31]
  glycan array binding signal (z-score): -0.537
[32]
  glycan array binding signal (z-score): -0.217
[33]
  glycan array binding signal (z-score): -0.067
[34]
  glycan array binding signal (z-score): 0.201
[35]
  glycan array binding signal (z-score): -0.495
Neu5Ac(a2-6)Gal
  glycan array binding signal (z-score): -0.318
